The list shows a part of the results. The list includes weakly bound sequences.

For the test, the target named is MaxL homodimer (UniProt P61244). Nature of the test: universal protein-binding microarray (PBM). To be noted: PBS-based mixture, 10 nM His-tagged protein dimer, 2% milk, 200 ng/uL BSA, 50 ng/uL salmon testes DNA, 0.02% TX-100; detection with Alexa 488 anti-His …; high values mean tight binding; most listed sequences are background and not binding sites; double strand, one strand shown.
Chain of UniProt P61244 (P61244 whole entry): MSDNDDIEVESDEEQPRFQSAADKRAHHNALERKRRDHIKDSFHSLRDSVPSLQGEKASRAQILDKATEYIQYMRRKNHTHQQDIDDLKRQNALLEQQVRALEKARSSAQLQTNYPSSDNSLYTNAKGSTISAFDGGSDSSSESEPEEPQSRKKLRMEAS
Regarding CATGCAAC, the binding signal (normalized occupancy) is 0.0893.

For the sequence ATCGTGAG, the binding signal (normalized occupancy) came to 0.0769. The result for ATATATCC reads 0.0888. The result for CAATATAG reads 0.076; that for GCTACTCA, 0.0648; that for GCCATACC, 0.0836. Consider ACAGTCTG, for which the binding signal (normalized occupancy) stood at 0.0756. The result for TGAATCAA reads 0.0815. For TACACCCA, the binding signal (normalized occupancy) worked out at 0.077.

In the case of AGTGGGCG, the binding signal (normalized occupancy) stood at 0.0747. To CACGTAGA belongs 0.0865. Take GGGTCTAA: the binding signal (normalized occupancy) was 0.0755. To TTTCAAAA belongs 0.0743. The result for AATTTGAC reads 0.0715. As for CATCAAAC, the binding signal (normalized occupancy) came to 0.0788.

For the sequence AGCACGAA, the binding signal (normalized occupancy) amounted to 0.0827.

Consider CCTCGATA, for which the binding signal (normalized occupancy) stood at 0.0765.

In the case of AGACACTC, the binding signal (normalized occupancy) was determined as 0.0698. As to AGCCGACC, the binding signal (normalized occupancy) turned out to be 0.0705. To AGGATCCC belongs 0.0724; to ATAGAGCG, 0.0749; to ATTATTAA, 0.0774. Regarding ACCATCCT, the binding signal (normalized occupancy) turned out to be 0.0757.

Consider CGCCGCTA, for which the binding signal (normalized occupancy) came out at 0.0672.

Take CGAGCGCA: the binding signal (normalized occupancy) stood at 0.0729. To ATATGCCA belongs 0.0822. In the case of ATGAAAAG, the binding signal (normalized occupancy) was 0.0797. Consider AAAATGTT, for which the binding signal (normalized occupancy) stood at 0.0725.

Regarding CGATGCTA, the binding signal (normalized occupancy) was determined as 0.073.

Take ACCCAGGT: the binding signal (normalized occupancy) came out at 0.0767.

With ATATCTGA, the binding signal (normalized occupancy) was determined as 0.0769. On to CGATTCAG, for which the binding signal (normalized occupancy) was 0.0701.

As for ATACGACG, the binding signal (normalized occupancy) was found to be 0.0796. For AGGAATTA, the binding signal (normalized occupancy) amounted to 0.077. The result for CCTAGGTC reads 0.0677; that for ACCTCAGG, 0.0672. To ATCTACTG belongs 0.0742; to ATCGACCA, 0.0759; to GTGAGTAA, 0.0776. To GATCTCGC belongs 0.0728.

Consider CCGGGTTC, for which the binding signal (normalized occupancy) was 0.0659.

As for ACTGACAC, the binding signal (normalized occupancy) is 0.0735. To AGTCCAAT belongs 0.0739; to AGGCGACT, 0.0729. To AGATCCGC belongs 0.0757; to CTCTGATC, 0.071. As to ATTATAAA, the binding signal (normalized occupancy) worked out at 0.0757. Consider GAGCCTCC, for which the binding signal (normalized occupancy) is 0.0717. For the sequence ACTGCTAC, the binding signal (normalized occupancy) turned out to be 0.079.

As to CCTCGAGA, the binding signal (normalized occupancy) stood at 0.0756. The result for CAGCATCG reads 0.0732. On to CACTCCCG, for which the binding signal (normalized occupancy) worked out at 0.0732.

With CAAGTTCG, the binding signal (normalized occupancy) turned out to be 0.0733.

In the case of ATTAACCG, the binding signal (normalized occupancy) worked out at 0.0734.

With CGCACTTC, the binding signal (normalized occupancy) was found to be 0.0764. With GGTACAAA, the binding signal (normalized occupancy) came out at 0.0739. The result for GTGCTAGA reads 0.0825. The result for GATGTTCC reads 0.0807. Consider ACCGATGG, for which the binding signal (normalized occupancy) turned out to be 0.074.

On to TAGTACTA, for which the binding signal (normalized occupancy) is 0.0709. To AAGCTCGG belongs 0.0686; to AATCAAAA, 0.0706. For AAATGTTG, the binding signal (normalized occupancy) came to 0.0794. On to ACTGCCAA, for which the binding signal (normalized occupancy) is 0.0746. To CCGAGTCG belongs 0.067; to GGAATTGA, 0.0755. To AGTCATCA belongs 0.0755; to ATCTCCAC, 0.0773. The result for AACCGAAT reads 0.0773; that for ACGGCTGA, 0.0705; that for CTCGCGTC, 0.0784.

On to CAGACCAG, for which the binding signal (normalized occupancy) turned out to be 0.0695. AAACAAAC: the binding signal (normalized occupancy) is 0.0713. To TGCCTGAA belongs 0.0733; to CCTGAACA, 0.0792; to ATAGCGAT, 0.0756. To GATGGTTA belongs 0.0778. The result for GAGAGATC reads 0.0806; that for AACAGAAC, 0.075; that for CATGTGGA, 0.157. Take CGATGTAA: the binding signal (normalized occupancy) amounted to 0.0729.

Regarding ACTGCAGG, the binding signal (normalized occupancy) is 0.0684. To GTTTCTTA belongs 0.0733; to CAACCCCG, 0.0737; to CCTGGACA, 0.0774. On to GGTCCCAA, for which the binding signal (normalized occupancy) worked out at 0.0719.

For the sequence ATAAAAAG, the binding signal (normalized occupancy) worked out at 0.0796. As to ATAAGTGA, the binding signal (normalized occupancy) was 0.0765.

Consider ACTCAGGC, for which the binding signal (normalized occupancy) is 0.075. The result for CCCACAGG reads 0.0736; that for ATTTTTGG, 0.074. To AATGAGCG belongs 0.0753; to CTACACCA, 0.0787. To CACAGAAA belongs 0.0694; to ATGCTTGG, 0.0811. GAGAGGCA: the binding signal (normalized occupancy) was determined as 0.0736. To GCTGCCGA belongs 0.0651. The result for GAGTTGAA reads 0.0697.

Take CTGCGTCA: the binding signal (normalized occupancy) is 0.0709.

On to AGCGTTCC, for which the binding signal (normalized occupancy) came to 0.0728. To AACGCACT belongs 0.0741; to AAGTTCGG, 0.0656. For AGCCTCCC, the binding signal (normalized occupancy) came to 0.0713. The result for AGGTGGAA reads 0.0722; that for ATACCATG, 0.0891; that for CGCTAGTC, 0.0696. To ACTGAGCA belongs 0.0734; to ACATAAAG, 0.0761; to AATGGTTC, 0.0736.

The values above are taken from paper PMC4242493.
